Test results published in the supplement of paper PMC12217912.
The list shows a part of the results. Sequences were assembled here from the parent chain. Inactive controls read about 0.05.

B1: TEV protease; numbered along this chain (parent)
chain: MGESLFKGPRDYNPISSSICHLTNESDGHTTSLYGIGFGPFIITNKHLFRRNNGTLVVQSLHGVFKVKDTTTLQQHLVDGRDMIIIRMPKDFPPFPQKLKFREPQREERICLVTTNFQTKSMSSMVSDTSCTFPSGDGIFWKHWIQTKDGQCGSPLVSTRDGFIVGIHSASNFTNTNNYFTSVPKNFMELLTNQEAQQWVSGWRLNADSVLWGGHKVFMVKPEEPFQPVKEATQL

Variants of: B1
Assay: raw area under fraction-flipped curve 0-4 h after induction (AUC4h, not background-subtracted), DNA-recorder readout of cleavage of the substrate (dimensionless); higher = more cleavage of the substrate by the protease variant
Conditions: temperature: 34 °C; time window: 0-4 h after rhamnose induction
Description: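 In vivo DNA recorder in E. coli TOP10(DE3) ΔrhaA at 34 °C. Each TEVp single-site mutant (parent TEVp 0) is paired with a single-site variant of the 7-mer TEVs (canonical ENLYFQ|S). The substrate sits between flexible linkers in a Bxb1-sfGFP-TEVs-SsrA fusion, so cleavage stabilises Bxb1 and speeds flipping of a recombination array, read by NGS. The value is the raw area under the fraction-flipped curve over 0-4 h after rhamnose induction (AUC4h), with ≥20 reads per time point. It is not background-subtracted; inactive controls average about 0.047.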
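Further: Bxb1 expression induced with 0.2% (w/v) L-rhamnose at OD600 near 0.5, cultures sampled hourly, flipped fraction per protease–substrate barcode pair counted by paired-end Illumina sequencing.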

Variant	area with substrate ENLYFAS	area with substrate ENLYFCS	area with substrate ENLYFDS	area with substrate ENLYFES	area with substrate ENLYFFS	area with substrate ENLYFHS	area with substrate ENLYFIS	area with substrate ENLYFKS	area with substrate ENLYFLS	area with substrate ENLYFMS	area with substrate ENLYFNS	area with substrate ENLYFPS	area with substrate ENLYFRS	area with substrate ENLYFTS	area with substrate ENLYFWS	area with substrate ENLYFYS	area with substrate ENLYFGS	area with substrate ENLYFSS	area with substrate ENLYFVS
MGESLFKGPRDYNPISSSICHLTNESDGHTTSLYGIGFGPFIITNKHWFRRNNGTLVVQSLHGVFKVKDTTTLQQHLVDGRDMIIIRMPKDFPPFPQKLKFREPQREERICLVTTNFQTKSMSSMVSDTSCTFPSGDGIFWKHWIQTKDGQCGSPLVSTRDGFIVGIHSASNFTNTNNYFTSVPKNFMELLTNQEAQQWVSGWRLNADSVLWGGHKVFMVKPEEPFQPVKEATQL [L48W]	0.0417	0.0559	0.0615	0.0537	0.0669	0.0582	0.0546	0.0756	0.0679	0.0367	0.0663	0.0523	0.0371	0.058	0.0568	0.0564			
MGESLFKGPRDYNPISSSICHLTNESDGHTTSLYGIGFGPFIITNKHRFRRNNGTLVVQSLHGVFKVKDTTTLQQHLVDGRDMIIIRMPKDFPPFPQKLKFREPQREERICLVTTNFQTKSMSSMVSDTSCTFPSGDGIFWKHWIQTKDGQCGSPLVSTRDGFIVGIHSASNFTNTNNYFTSVPKNFMELLTNQEAQQWVSGWRLNADSVLWGGHKVFMVKPEEPFQPVKEATQL [L48R]	0.0646	0.0586		0.0632	0.0672	0.0534	0.064	0.0555	0.0609	0.055	0.0631	0.0675	0.0333	0.084	0.0569	0.069	0.0582	0.0667	0.0227
MGESLFKGPRDYNPISSSICHLTNESDGHTTSLYGIGFGPFIITNKHNFRRNNGTLVVQSLHGVFKVKDTTTLQQHLVDGRDMIIIRMPKDFPPFPQKLKFREPQREERICLVTTNFQTKSMSSMVSDTSCTFPSGDGIFWKHWIQTKDGQCGSPLVSTRDGFIVGIHSASNFTNTNNYFTSVPKNFMELLTNQEAQQWVSGWRLNADSVLWGGHKVFMVKPEEPFQPVKEATQL [L48N]	0.0527	0.0574		0.0593	0.0742	0.0523	0.062	0.0621	0.0716	0.0715	0.0663	0.0884	0.0717	0.0524		0.0604	0.0478	0.0503	0.0675
MGESLFKGPRDYNPISSSICHLTNESDGHTTSLYGIGFGPFIITNKHLFRRWNGTLVVQSLHGVFKVKDTTTLQQHLVDGRDMIIIRMPKDFPPFPQKLKFREPQREERICLVTTNFQTKSMSSMVSDTSCTFPSGDGIFWKHWIQTKDGQCGSPLVSTRDGFIVGIHSASNFTNTNNYFTSVPKNFMELLTNQEAQQWVSGWRLNADSVLWGGHKVFMVKPEEPFQPVKEATQL [N52W]	0.0584			0.0647	0.0662	0.0525	0.0591	0.0556	0.0723	0.0652	0.0676	0.0679	0.0577	0.0632	0.0521	0.0559	0.0714	0.0644	0.049
